{"source": "paper PMC6919601", "about": "“Identification of Plasmodium dipeptidyl aminopeptidase allosteric inhibitors by high throughput screening” (PLoS ONE, 2019)", "note": "Among all 110,000 compounds or so, about 230 (0.21%) showed an effect of 50% or more. This is one part of the list.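 Note: 30 min substrate incubation versus DMSO and 10 µM JCP410 controls.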"}
{"biological_target": "DPAP1 (Plasmodium falciparum, UniProt Q8IIJ9)", "sequence (Q8IIJ9 whole entry, looked up)": "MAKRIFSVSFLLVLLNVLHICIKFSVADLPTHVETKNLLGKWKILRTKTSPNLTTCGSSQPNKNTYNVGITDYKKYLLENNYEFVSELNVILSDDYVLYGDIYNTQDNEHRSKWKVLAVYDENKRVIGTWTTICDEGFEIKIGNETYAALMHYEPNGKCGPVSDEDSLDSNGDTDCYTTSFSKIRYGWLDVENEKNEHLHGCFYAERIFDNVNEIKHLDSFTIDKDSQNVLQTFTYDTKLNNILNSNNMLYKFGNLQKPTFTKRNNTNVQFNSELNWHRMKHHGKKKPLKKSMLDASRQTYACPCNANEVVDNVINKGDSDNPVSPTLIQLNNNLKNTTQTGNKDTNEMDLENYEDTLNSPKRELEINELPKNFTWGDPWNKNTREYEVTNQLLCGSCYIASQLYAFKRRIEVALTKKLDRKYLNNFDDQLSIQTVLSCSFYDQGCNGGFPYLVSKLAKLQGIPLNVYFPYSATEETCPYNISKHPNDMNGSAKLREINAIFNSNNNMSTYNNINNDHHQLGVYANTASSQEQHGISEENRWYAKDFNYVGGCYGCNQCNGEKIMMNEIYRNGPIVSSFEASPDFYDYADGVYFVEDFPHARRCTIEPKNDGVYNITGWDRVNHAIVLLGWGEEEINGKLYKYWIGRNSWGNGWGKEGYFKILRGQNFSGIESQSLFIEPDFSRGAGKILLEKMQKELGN", "experiment": "primary screen, percent inhibition; read by cleavage of a fluorogenic dipeptide substrate; higher = more effect of the substance", "design": "species or system P. falciparum D10 trophozoite lysates; single well", "units": {"% Inhibition @ 10 uM": "%"}}
{"smiles": "CC(=O)N1CCN(Cc2ccc(F)cc2F)CC1", "% Inhibition @ 10 uM": -3.8}
{"smiles": "COc1cc(C2C(C(=O)c3ccc(F)cc3)=C(O)C(=O)N2c2nncs2)ccc1O", "note": "(centres unmarked)", "% Inhibition @ 10 uM": -3.98}
{"smiles": "O=C(Nc1ccc(S(=O)(=O)Nc2ccc(F)cc2)cc1)c1cccs1", "% Inhibition @ 10 uM": -2.8}
{"smiles": "CCc1ccc(-c2cn3c(n2)sc2cc(C(=O)NCCN4CCOCC4)ccc23)cc1", "% Inhibition @ 10 uM": 3.77}
{"smiles": "O=C(CN1CCCCC1)N1N=C(c2ccc(Br)cc2)CC1c1nc2ccccc2[nH]1", "note": "(centres unmarked)", "% Inhibition @ 10 uM": 8.82}
{"smiles": "O=C(O)c1cc2ccccc2c([N+](=O)[O-])c1O", "% Inhibition @ 10 uM": 17.5}
{"smiles": "CCN(C(=O)Cc1ccc(OC)cc1)C1CCCCC1", "% Inhibition @ 10 uM": 0.215}
{"smiles": "COc1cc2nc(S)n3nc(COc4ccccc4C)nc3c2cc1OC", "% Inhibition @ 10 uM": 1.23}
{"smiles": "COc1ccc(NC(=O)C2(N(Cc3ccccc3)C(=O)Cc3n[nH]c(N)n3)CCCCC2)cc1", "% Inhibition @ 10 uM": -2.75}
{"smiles": "CC(C)c1ccccc1NC(=O)CN1C(=O)C(=O)c2ccccc21", "% Inhibition @ 10 uM": 0.161}
{"smiles": "COc1c(S(=O)(=O)N2CCN(Cc3ccc4c(c3)OCO4)CC2)ccc(Cl)c1Cl", "% Inhibition @ 10 uM": -5.19}
{"smiles": "CC(C)(C)OC(=O)NC1c2ccccc2CSc2ccccc21", "note": "(centres unmarked)", "% Inhibition @ 10 uM": 0.964}
{"smiles": "CN(C)CCCNC1CC2CCC1C2", "note": "(centres unmarked)", "% Inhibition @ 10 uM": 1.57}
{"smiles": "COc1ccc(C(=O)Nc2ccc(S(=O)(=O)Nc3nccc(C)n3)cc2)cc1", "% Inhibition @ 10 uM": 0.993}
{"smiles": "COCCNC(=O)c1oc2c(c1C)-c1n[nH]cc1CC2", "% Inhibition @ 10 uM": -1.08}
{"smiles": "CCn1cc(CNC(=O)C23CC4CC(CC(C4)C2)C3)cn1", "% Inhibition @ 10 uM": 0.873}
{"smiles": "COc1ccc(OC)c(CN2CCN(C(=O)c3cc(OC)c(OC)c(OC)c3)CC2)c1", "% Inhibition @ 10 uM": -1.57}
{"smiles": "CN1C(=O)C(C2c3ccccc3Oc3c2c(=O)n(C)c(=O)n3C)C(=O)N(C)C1=O", "note": "(centres unmarked)", "% Inhibition @ 10 uM": 4.15}
{"smiles": "CCCOc1cccc(C2c3c(oc4ccccc4c3=O)C(=O)N2Cc2ccc3c(c2)OCO3)c1", "note": "(centres unmarked)", "% Inhibition @ 10 uM": 0.415}
{"smiles": "CC1CCCC(C)N1CC(O)COc1ccc(N)cc1", "note": "(centres unmarked)", "% Inhibition @ 10 uM": 0.385}
{"smiles": "CC(/C=C1\\N=C(c2ccccc2C)OC1=O)=C\\c1ccccc1", "% Inhibition @ 10 uM": -2.6}
{"smiles": "O=C(c1ccco1)N(Cc1cccs1)C1CCS(=O)(=O)C1", "note": "(centres unmarked)", "% Inhibition @ 10 uM": -0.622}
{"smiles": "CC1=CCC2(CO)COC(c3ccccc3O)C1C2", "note": "(centres unmarked)", "% Inhibition @ 10 uM": 1.29}
{"smiles": "CC(=O)C1=C(O)C(=O)N(CCCN2CCOCC2)C1c1ccc(Br)cc1", "note": "(centres unmarked)", "% Inhibition @ 10 uM": -6.47}
{"smiles": "Cc1ccc(C2CC(C(F)(F)F)n3nc(C(=O)N(C)Cc4cnn(C)c4C)cc3N2)cc1", "note": "(centres unmarked)", "% Inhibition @ 10 uM": 1.71}
{"smiles": "CC1(C)CC(=O)C2=C(C1)N(c1cccnc1)C(N)=C(C#N)C2c1cccs1", "note": "(centres unmarked)", "% Inhibition @ 10 uM": -2.77}
{"smiles": "Cc1ccc(S(=O)(=O)c2nnn(-c3ccc(Cl)cc3)c2C)cc1", "% Inhibition @ 10 uM": -0.326}
{"smiles": "CCOc1ccc(-c2nc(C#N)c(NCCCN(CC)CC)o2)cc1", "% Inhibition @ 10 uM": -3.23}
{"smiles": "OC(CNC1CCCCC1)CNC1CCCCC1", "% Inhibition @ 10 uM": 3.82}
{"smiles": "C=CCOc1ccc(C2c3c(-c4ccccc4O)n[nH]c3C(=O)N2CCCOCC)cc1", "note": "(centres unmarked)", "% Inhibition @ 10 uM": 6.34}
{"smiles": "Oc1ccc(Nc2nc(-c3ccccn3)cs2)cc1", "% Inhibition @ 10 uM": -1.37}
{"smiles": "Cc1ccc(C23CC4CC(CC(CC(=O)N5CCOCC5)(C4)C2)C3)cc1", "% Inhibition @ 10 uM": -3.12}
{"smiles": "COC(=O)c1cc2cc(OC)ccc2[nH]1", "% Inhibition @ 10 uM": 4.83}
{"smiles": "N#Cc1nc(/C=C/c2cccs2)oc1N1CCN(Cc2ccccc2)CC1", "% Inhibition @ 10 uM": -9.21}
{"smiles": "Cc1ccccc1S(=O)(=O)Cc1ccc(C(=O)NCCN2CCCC2)o1", "% Inhibition @ 10 uM": 2.14}
{"smiles": "CCCCSC1=C(C#N)C(=O)NCS1", "% Inhibition @ 10 uM": 0.0289}
{"smiles": "Cc1cccc(C(=O)N2CCN(Cc3ccc4c(c3)OCO4)CC2)c1", "% Inhibition @ 10 uM": -1.52}
{"smiles": "CC1CCN(C(=O)CCc2nc(CN3CCN(C(=O)c4ccc(Br)o4)CC3)no2)CC1", "% Inhibition @ 10 uM": 5.29}
{"smiles": "NC(=O)CSc1nc2c(c(=O)n1Cc1ccccc1)SCC2", "% Inhibition @ 10 uM": 6.79}
{"smiles": "CCCOc1cccc(C(=O)Nc2ccc(C(=O)O)cc2)c1", "% Inhibition @ 10 uM": 13.1}
{"smiles": "Cc1cc(C)c2c(N)c(C(=O)NC(C)c3ccccc3)sc2n1", "note": "(centres unmarked)", "% Inhibition @ 10 uM": 0.0289}
{"smiles": "COc1cccc(C2NC(=O)NC(c3ccccc3)=C2C(=O)c2ccccc2)c1", "note": "(centres unmarked)", "% Inhibition @ 10 uM": -1.37}
{"smiles": "O=S(=O)(c1ccccc1)c1cnc2ccccc2c1N1CCN(Cc2ccccc2)CC1", "% Inhibition @ 10 uM": -9.3}
{"smiles": "CCCCN(C)CCNC(=O)c1cc2c(C)nc3ccccc3c2o1", "% Inhibition @ 10 uM": -5.49}
{"smiles": "Cc1ccc2c(=O)c(C(=O)c3cccc(Cl)c3)cn(CC(=O)NCCCc3ccccc3)c2n1", "% Inhibition @ 10 uM": -3.13}
{"smiles": "c1ccc2c(c1)nnn1c3ccccc3nc21", "% Inhibition @ 10 uM": 1.13}
{"smiles": "CC(C)n1c(-c2ccc(C(=O)N3CCN(C)CC3)cc2)nc2ccccc21", "% Inhibition @ 10 uM": 83.9}
{"smiles": "COc1ccc(-c2noc(CNC(=O)c3ccc(C)c(Cl)c3)n2)cc1", "% Inhibition @ 10 uM": -4.82}
{"smiles": "Cc1oc2c(C)c3oc(=O)c(CC(=O)NCc4ccco4)c(C)c3cc2c1-c1ccccc1", "% Inhibition @ 10 uM": 5.68}
{"smiles": "CC(Nc1ccc([N+](=O)[O-])c2cccnc12)c1ccccc1", "note": "(centres unmarked)", "% Inhibition @ 10 uM": -1.64}
